Data on 94 sequences can be found in the supplement of paper PMC3334620.

The full ranking holds about 33,000 sequences; the median of “E-score (-0.5 to 0.5)” is about -0.054, and the highest 2% start at about 0.35. This is one part of the list.

The assay has as its target T1, Stb5 (UniProt P38699).
T1 sequence: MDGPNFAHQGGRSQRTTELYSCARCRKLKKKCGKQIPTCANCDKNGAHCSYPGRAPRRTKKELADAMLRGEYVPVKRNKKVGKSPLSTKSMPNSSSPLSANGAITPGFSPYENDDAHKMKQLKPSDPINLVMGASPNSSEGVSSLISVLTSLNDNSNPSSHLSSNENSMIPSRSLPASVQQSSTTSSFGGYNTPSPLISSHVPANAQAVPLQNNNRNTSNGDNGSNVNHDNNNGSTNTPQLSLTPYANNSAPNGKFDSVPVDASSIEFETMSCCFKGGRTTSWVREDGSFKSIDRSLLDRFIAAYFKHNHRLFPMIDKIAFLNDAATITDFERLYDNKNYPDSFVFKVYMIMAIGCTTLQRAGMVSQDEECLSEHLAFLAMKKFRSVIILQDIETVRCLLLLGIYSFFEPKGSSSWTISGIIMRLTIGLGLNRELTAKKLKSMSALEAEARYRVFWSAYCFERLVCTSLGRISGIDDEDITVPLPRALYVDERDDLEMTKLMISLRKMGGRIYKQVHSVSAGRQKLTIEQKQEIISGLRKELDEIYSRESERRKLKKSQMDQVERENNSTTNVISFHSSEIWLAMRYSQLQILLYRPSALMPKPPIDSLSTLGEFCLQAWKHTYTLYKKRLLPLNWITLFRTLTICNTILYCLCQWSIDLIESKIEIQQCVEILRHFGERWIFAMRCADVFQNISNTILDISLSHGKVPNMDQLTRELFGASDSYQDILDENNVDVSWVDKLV
The assay can be described thus: PBM E-score (8-mer binding enrichment) (E-score (-0.5 to 0.5)); higher = stronger / more preferred TF binding; most listed sequences are background and not binding sites. To be noted: protein concentration: 200 nM; construct: GST-full length. A digest of the protocol: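 E-scores (a modified Wilcoxon-Mann-Whitney statistic) were assigned by the Universal PBM Analysis Suite to every ungapped eight-base word pooled with its reverse complement. The input came from universal all-10-mer Agilent arrays made double-stranded by primer extension and probed with GST-tagged yeast transcription factors at about 100-200 nM. Fluorescent anti-GST detected bound protein, and masliner normalised the scans.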
As to CGAAGTCA, the “PBM E-score” value was -0.248.

Take GATGTTCC: the “PBM E-score” value was -0.0385.

As to ACAGCTCC, the “PBM E-score” value is -0.0573.

On to TACAATCA, for which the “PBM E-score” value is -0.121.

As for AAATGTAG, the “PBM E-score” value is -0.124.

As to AAGAGATA, the “PBM E-score” value was -0.294.

With ATTCGTAC, the “PBM E-score” value is -0.0154.

Regarding GGGCTCAA, the “PBM E-score” value turned out to be 0.116.

With GATGCCGC, the “PBM E-score” value was found to be 0.349.

In the case of GGATCCAC, the “PBM E-score” value is -0.0724.

CAGAGGTA: the “PBM E-score” value is -0.237.

With CTAACACC, the “PBM E-score” value was determined as 0.401.

In the case of CGAGCTCG, the “PBM E-score” value is -0.119.

For the sequence GGCGTAGA, the “PBM E-score” value stood at 0.026.

For the sequence AATTCGCA, the “PBM E-score” value was -0.0302.

Consider GATCACGA, for which the “PBM E-score” value is -0.157.

As to CGCGTAGC, the “PBM E-score” value was found to be 0.115.

CCCTACGG: the “PBM E-score” value was found to be 0.158.

Regarding GACACTAC, the “PBM E-score” value is 0.00991.

ATACTCGC: the “PBM E-score” value amounted to 0.0238.

As for CTAGAATA, the “PBM E-score” value was 0.0173.

As for CCTTCAGC, the “PBM E-score” value is -0.169.

On to CAGACATA, for which the “PBM E-score” value is -0.0364.

As for CCGCGGAG, the “PBM E-score” value came to 0.298.

For the sequence AAACGGCA, the “PBM E-score” value was found to be 0.225.

For the sequence ACTAGCGA, the “PBM E-score” value was 0.07.

Turning to ATACATCA, the “PBM E-score” value was -0.0827.

For the sequence GTCTTCAA, the “PBM E-score” value is -0.405.

As to AAACGTAT, the “PBM E-score” value is 0.0227.

ACCGTAAA: the “PBM E-score” value turned out to be 0.153.

Consider ACTGGCAA, for which the “PBM E-score” value is -0.119.

Consider AAATGTGG, for which the “PBM E-score” value came out at 0.0621.

For GCGCAAAA, the “PBM E-score” value turned out to be 0.0272.

For AGGGAGTA, the “PBM E-score” value was -0.109.

Consider CACGTTGC, for which the “PBM E-score” value is -0.137.

In the case of AAGTTCAT, the “PBM E-score” value is 0.0526.

Turning to GAGCGCGC, the “PBM E-score” value was 0.0402.

As for GGACCCCC, the “PBM E-score” value is -0.0328.

Consider ACTTGCAC, for which the “PBM E-score” value is -0.0278.

Regarding AGACCACC, the “PBM E-score” value is -0.104.

Take AGGCGGCC: the “PBM E-score” value amounted to 0.235.

For the sequence AGGTCGAC, the “PBM E-score” value was -0.236.

Consider GGCCAACC, for which the “PBM E-score” value was -0.103.

For TATACGAA, the “PBM E-score” value is -0.00442.

With AATGATAA, the “PBM E-score” value is 0.0347.

As for ACACTCCT, the “PBM E-score” value is -0.0969.

Consider AATTCCAC, for which the “PBM E-score” value is -0.0996.

Take TCTGGCCA: the “PBM E-score” value is -0.248.

In the case of ATGGGGCG, the “PBM E-score” value is -0.0875.

Regarding AGAACTGA, the “PBM E-score” value is -0.221.

As to CCTTAGCA, the “PBM E-score” value is -0.0612.

Consider GCGATACC, for which the “PBM E-score” value is 0.0758.

For the sequence ATCGACGC, the “PBM E-score” value was -0.0925.

Take GGCCAGAC: the “PBM E-score” value is -0.0267.

Regarding ATTTAGTA, the “PBM E-score” value stood at 0.0808.

As to GGATTAAA, the “PBM E-score” value amounted to 0.323.

Consider GCGGTTGA, for which the “PBM E-score” value is 0.0123.

For the sequence ATGTTCAA, the “PBM E-score” value worked out at 0.121.

CCGCACGG: the “PBM E-score” value was determined as 0.305.

In the case of CAGGTTGG, the “PBM E-score” value is -0.235.

Turning to ACAATGCA, the “PBM E-score” value was -0.157.

On to CCGCCTTA, for which the “PBM E-score” value was 0.246.

In the case of CGAAAGCC, the “PBM E-score” value is 0.0408.

Take CGTGGTTA: the “PBM E-score” value was -0.0972.

AAGACACG: the “PBM E-score” value was -0.0417.

Take AGTCCGTC: the “PBM E-score” value came to 0.389.

AGTACTAA: the “PBM E-score” value is -0.156.

Regarding AAGTTCCT, the “PBM E-score” value is -0.098.

As to AGATTCCA, the “PBM E-score” value was -0.193.

As to ATAGTAGA, the “PBM E-score” value is -0.164.

As to ACGATGCA, the “PBM E-score” value is -0.0665.

For AGTATCTG, the “PBM E-score” value was -0.2.

As to ACTGTTGA, the “PBM E-score” value was -0.119.

For the sequence TATATGAA, the “PBM E-score” value was -0.112.

Turning to GAGGTATA, the “PBM E-score” value is -0.0269.

In the case of ACGCACTA, the “PBM E-score” value was -0.153.

Take CTTTGCCC: the “PBM E-score” value was -0.104.

As for AGCGCGGA, the “PBM E-score” value came out at 0.272.

As to ATGTATGG, the “PBM E-score” value is -0.0509.

As for CCCCTGAA, the “PBM E-score” value is -0.185.

In the case of ATCTATTA, the “PBM E-score” value was -0.102.

As to AGACCCCC, the “PBM E-score” value was -0.165.

Consider CATCCAAG, for which the “PBM E-score” value was -0.301.

With AGCACGAT, the “PBM E-score” value was -0.227.

For CCTTCAAG, the “PBM E-score” value is -0.127.

With AAGGGTAG, the “PBM E-score” value is -0.194.

On to GCTAGTTA, for which the “PBM E-score” value is -0.0825.

In the case of GCAGAATA, the “PBM E-score” value was 0.115.

On to CAACTCAC, for which the “PBM E-score” value is -0.124.

ACGAGCCC: the “PBM E-score” value is -0.143.

With TGAACAAA, the “PBM E-score” value stood at 0.00178.

On to AGGATATG, for which the “PBM E-score” value came out at 0.00887.

Consider ATTCTATG, for which the “PBM E-score” value was 0.0222.

Consider ATACCGAA, for which the “PBM E-score” value turned out to be 0.242.
